The source gives no read counts; variants with many changes may rest on few reads.
B1: LINE1-full (parent)
chain: UACGUAGGUGGUUUUCCCCUGAUAGUGCUAAGGGGGCCUGGAAGUUUGGACUGGGCAGAGCUCAACACAGCGUGGCAAAGUGGCUGUGGCUAGACUGCCUCUCUGGAUUCCUCGUCACUCAGCAGGGCAUCUCUGAGAGAAAUGCC

Variants of: B1
Assay: self-cleavage, relative activity (ratio to wild type); higher = more cleavage; in vitro, sequencing; the parent is a self-cleaving ribozyme

| Variant | self-cleavage |
| --- | --- |
| A2G C28U U132A U134C A142G | 0.95 |
| G4C G27A U46A | 1.1 |
| A30U A50G C76U U115C | 1.33 |
| U12G U15C C19U C63U U115C A124G | 0.49 |
| A107U A121G A141G | 1.76 |
| U52C A57U U119C A136G A141G | 0.45 |
| U47C G55U U104A A141G | 0.1 |
| U26C A94G U109A A142U | 0.3 |
| U20C U23A A31U U109A A117U U134C | 1.69 |
| G7A A59G U109A A138G | 0.03 |
| U20C U87C C103U A107G U115A | 0.36 |
| A6U C71U U132C U134C | 0.85 |
| U26C U62A U134A | 0.12 |
| G35A U109G U112C | 0.26 |
| U12C A57G U62C | 0.14 |
| U26A U29C A79U U112C G127A | 1.82 |
| U1C C56G A65U | 0.08 |
| A22G A24U A69U U102A | 0.09 |
| U9A A77G A79C | 1.36 |
| U14C U39A A59G U73A A117C A136G | 0.08 |
| A65G A94G U119A G125A A136U A141G | 0 |
| A67U U85C U91C A94G C120U A121G | 0 |
| A6G U109C G135A | 0.7 |
| A67U U130C U132C | 0.26 |

| Variant | self-cleavage |
| --- | --- |
| U15C U45C U96A | 0.11 |
| U29C C111U U119C | 1.34 |
| U9A A59G U104C C118U U130C | 0 |
| U14A U23C C90U A142G G144A | 0.07 |
| A67G C90U U104C | 0.02 |
| U14C U29A A30G A79U | 0.66 |
| A64U C90U U109A | 0.01 |
| A22G U45A U115C A142G | 1.94 |
| U14C U39C A42G | 1.25 |
| U15A U45C A59G C61U U130A U132A A140G | 0.08 |
| A79G C90U A121G | 0.06 |
| U20C A79G A117U G126A | 1.97 |
| U15C A78G U96C | 0 |
| A2G G36A U81A G126U A138G | 1.76 |
| C71A A77G C120A U134A | 0.3 |
| A59G U73C U102C | 0 |
| U47C A78G A117U | 0.94 |
| A43G U73A U130C | 0.7 |
| U5C U14C U23A | 0.83 |
| U26C C113U U115C | 1.5 |
| A78U U115G A141U | 2.61 |
| U13A G83A U100C A107U A129U A140G | 0.26 |
| U1A U9C U13C A67G U96C C146U | 0.92 |
| U39C C95A U109C | 0.06 |

| Variant | self-cleavage |
| --- | --- |
| A2G A50U G86U U115C | 0.11 |
| A22G A77U A124G A141G | 0.82 |
| A24U U85A U112C | 0.13 |
| G8C U9C C145U | 0.94 |
| U26C A78U U91A | 1.47 |
| U1C U13C U73G A92G A138G | 0 |
| U1C U104A U143A | 0.46 |
| A64G A94G A138G | 0 |
| U62A G86A U104C U143C | 0.03 |
| G80A U91A A138U | 0.66 |
| U13C U115C U143A | 0.92 |
| A69G U96C U100A U112C U143A | 0 |
| A92G U100C C103A A140G | 0.14 |
| U9C U62C U96C | 0.06 |
| A31C U85A A138G | 0.52 |
| U13C C68U U130A | 0.15 |
| C3U U47A U130A | 1.24 |
| U12G U47C A64U A140G | 0.75 |
| A2G U115C A124G A142G | 0.48 |
| G55C A65G A138G | 0.03 |
| U13C U46C G60A U62A | 0.1 |
| A57G A69G A78G U132C | 0 |
| A6U A57G U112C | 0.35 |
| U13C U29C U62C | 0.3 |

| Variant | self-cleavage |
| --- | --- |
| U12C A129G A140G | 0.84 |
| U20G A65G U108C A129G | 2.04 |
| A43G U130C A142G | 2.14 |
| U12A A79G U108C C133U | 0.71 |
| C37U U39C A129G | 1.29 |
| A30G U104C C113A | 1.31 |
| U85A C113U U130C | 0.07 |
| U20C U87A U104C | 0.14 |
| U62C U73C C90U U112A U115C | 0.04 |
| A67G A124G G137A | 0.34 |
| U12A G89A G135A | 0.02 |
| A2U G4A C18U U81C U100C | 0 |
| G4A A50G C61G U119A | 0.05 |
| U9C U96C U132C | 0.19 |
| U13C C37A U39A A117U A121G | 1.2 |
| A50G U87C U134C U143C | 0.42 |
| U20G U29A U47A | 0.96 |
| U12C U102C A142G | 2.22 |
| U12C G41A U52A U62A U108G | 0.02 |
| C37U C66A A94G | 0.03 |
| G41U A67G U132C A136G | 0.39 |
| U1G A117G U119C | 0.71 |
| A42G A59G U108C A136G | 0.37 |
| A42U G93U C110G | 0.02 |

| Variant | self-cleavage |
| --- | --- |
| U1C U39A A124G | 0.44 |
| A43G G58A U119C U130C | 0.12 |
| U85C U100C A117G | 0 |
| U13C A50G U73A | 0.84 |
| U13C G33A A67G U134C | 0.35 |
| U5G U20C A117U U132C | 0 |
| G32A A59C U87A | 0.02 |
| U26C G49U G58U A138G | 0.1 |
| C68U A77U U115A U119C | 0.23 |
| U13C A42G A69U U109A | 0.04 |
| A30G A50G A92U | 0 |
| U26C A69U A107G | 0.05 |
| U13C U29A U46C U52A | 1.53 |
| U62C A107G U108C | 0 |
| U13C G25A A79G | 1.16 |
| A57U U81C U134A | 0.1 |
| U5C U52A G74A A138G | 0 |
| A64G G97A U102C | 0.04 |
| G27A U62A U87A U130A U134A | 0.05 |
| A50U U52C U143A | 0.73 |
| U14A G41C C51U | 1.91 |
| A67U A79G A107U | 0.13 |
| C76U U109A A140G | 0 |
| A43G G80U G114A A142G | 1.55 |

| Variant | self-cleavage |
| --- | --- |
| U15A U45C U62A A64G A77U | 0.11 |
| G8A A22G U52C U134G | 1.15 |
| C28A A43G A77G A92G C113A | 0.05 |
| U39C A57U C146U | 0.08 |
| A30C G74C A141G | 0.49 |
| U23C U29C U47A C98U U119C | 1.14 |
| U26C A57G A79G A142G | 1.31 |
| U96C C101U A141U | 0.14 |
| A43G G60A G74A U119G G144C | 0.06 |
| A69G U119C U134A | 0.69 |
| A22G A65G U143A | 0 |
| U13C U100C U119C | 2.17 |
| U12C U26A C71U U102G U104C G125A | 1.02 |
| U14G U26C A142G | 0 |
| U46C U109C G137A | 1.84 |
| A69G G139U A140G A142G | 0.76 |
| U12C U39A U45G A124U | 1.64 |
| U39A A42G A79G | 0.5 |
| U39C A50G G58U G88U | 0.06 |
| U1C A57G U104C | 0.66 |
| A2G A24G A43G C101U U115A | 0.77 |
| U15G U115C G125U | 1.04 |
| C38A G74A A124U A140G | 0.86 |
| U96A U109A U112C | 0.06 |

| Variant | self-cleavage |
| --- | --- |
| C3U G49U U134A A142G | 0.27 |
| A2G A6G U13C A65G | 0.63 |
| A92G A121U A142G | 0 |
| U85C G105U U119C | 0.24 |
| U12C A43G U112C A138G | 0 |
| A77G U81C U104C | 1.84 |
| U73A U102A U104G | 1.78 |
| A64G U87G A92G | 0.46 |
| U9C U45C A94G G127U | 0.54 |
| A42G U81C U102A | 1.47 |
| U13C A59G U102C | 0 |
| A67U A77U A129G | 0.03 |
| A67G U96C G97A A140G | 0.03 |
| U26A U52G A65G | 0.1 |
| U45G U73A U132A | 1.29 |
| U132C U134A A140G | 0.57 |
| U85G U87A G93A U132C | 0.02 |
| G74A G126A G135A | 0.9 |
| U29C G114A U119C | 0 |
| U52C G72A A136G | 1.38 |
| U15C A43G A79U U104C U130C | 1.84 |
| U14C U91C U100C U115A | 0.48 |
| C19U G135U C145U | 0.68 |

Source: the RNAGym collection of RNA variant scans (doi:10.7554/elife.90254)
